# Experimental data taken from article PMC6919601, “Identification of Plasmodium dipeptidyl aminopeptidase allosteric inhibitors by high throughput screening” (PLoS ONE, 2019).
# About 230 (0.21%) of roughly 110,000 compounds showed an effect of 50% or more. The list shows a part of the results.
# Target: DPAP1 (Plasmodium falciparum, UniProt Q8IIJ9)
# Assay: primary screen, percent inhibition; read by cleavage of a fluorogenic dipeptide substrate; higher = more effect of the substance
# Design: species or system P. falciparum D10 trophozoite lysates; single well
# 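Note: 30 min substrate incubation versus DMSO and 10 µM JCP410 controls.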
# Sequence of DPAP1 (Q8IIJ9 whole entry, looked up): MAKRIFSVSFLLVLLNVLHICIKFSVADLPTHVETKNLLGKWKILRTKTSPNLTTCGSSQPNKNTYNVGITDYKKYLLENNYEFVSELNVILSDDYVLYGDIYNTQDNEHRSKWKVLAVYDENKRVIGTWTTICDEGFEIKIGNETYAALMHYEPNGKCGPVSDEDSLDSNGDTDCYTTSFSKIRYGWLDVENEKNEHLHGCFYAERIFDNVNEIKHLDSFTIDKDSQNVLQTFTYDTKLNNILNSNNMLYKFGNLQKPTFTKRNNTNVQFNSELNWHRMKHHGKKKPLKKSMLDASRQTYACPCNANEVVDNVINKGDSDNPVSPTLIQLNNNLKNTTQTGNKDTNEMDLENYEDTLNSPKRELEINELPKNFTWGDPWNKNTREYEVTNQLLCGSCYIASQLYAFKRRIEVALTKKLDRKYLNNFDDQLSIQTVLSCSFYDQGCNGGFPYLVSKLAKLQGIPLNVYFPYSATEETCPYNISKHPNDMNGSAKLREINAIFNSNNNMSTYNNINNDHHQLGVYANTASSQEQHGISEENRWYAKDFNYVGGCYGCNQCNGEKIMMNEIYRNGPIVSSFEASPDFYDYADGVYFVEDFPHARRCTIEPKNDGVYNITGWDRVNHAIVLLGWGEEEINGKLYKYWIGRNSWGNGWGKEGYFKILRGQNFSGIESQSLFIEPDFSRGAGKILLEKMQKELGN
row,Compound,% Inhibition @ 10 uM [%]
1,Cc1ccc(CC(=O)Nc2nc3c(s2)C(=O)CC(C)(C)C3)cc1,-2.8
2,O=C(NCCCN1CCCC1)C1CCN(Cc2cnn(-c3ccccc3)c2-n2cccc2)CC1,-1.08
3,O=S(=O)(c1ccc2c(c1)Cc1ccccc1-2)N1CCSC1,-3.26
4,O=C(O)CCc1c(-c2ccccc2)cc2ccccn12,0.315
5,COc1cccc(CN2CCN(Cc3cc(OC)cc(OC)c3)CC2)c1,-5.26
6,O=S(=O)(Nc1cc(Cl)ccc1Cl)c1cc(Cl)ccc1Cl,5.09
7,Cc1ccc(C)c(OCC(=O)Nc2nc3ccccc3s2)c1,2.17
8,Cc1ccc(CCNC(=O)C2CCCN(Cc3nc(-c4ccc(Cl)cc4)oc3C)C2)cc1 (stereo not shown),-2.85
9,CCOC(=O)N1CCN(C(=O)CSc2nnc(-c3ccccc3C)o2)CC1,-1.67
10,CCCOc1ccc(Cc2nn3c(=O)/c(=C\c4ccccc4F)sc3nc2=O)cc1,1.23
11,CSc1nc2n(n1)C(c1cccc(Br)c1)C1=C(O)CCCC1=N2 (stereo not shown),-5.25
12,Cc1c(C(=O)O)oc2ccc3c(c12)C(=O)CC(C)(c1ccc(F)cc1)O3 (stereo not shown),-3.53
13,Cc1ccnc(NC(=O)Cc2noc3ccccc23)c1,1.51
14,C=CCOc1ccc(/C=C2/SC(N3CCOCC3)=NC2=O)cc1,-2.88
15,CCCCCn1cnc2sc(CC)cc2c1=O,-12.6
16,O=C(Cn1ncc2c3ccccc3n(Cc3ccccc3)c2c1=O)NCCCc1ccccc1,0.137
17,O=C(c1ccco1)N1CCN(C(=O)C2c3ccccc3C(=O)N3CCc4ccccc4C23)CC1 (stereo not shown),2.91
18,COc1ccc(N(CC(=O)Nc2ccccc2F)S(C)(=O)=O)cc1,-3.25
19,Brc1ccc(OCCCCN2CCCC2)cc1,-2.12
20,Cc1ccc(O)c(C(CC(=O)NC2CCCCC2)c2ccccc2)c1 (stereo not shown),-0.0626
21,N#CC1=C(N)Oc2cc(N)ccc2C1c1cccc(C(F)(F)F)c1 (stereo not shown),6.8
22,CCCc1nc2c(=O)n(C)c(=O)nc-2n(C)n1,3.77
23,COc1cccc(OCCOCCN2CCCC2)c1,-0.817
24,CCCOc1ccccc1/C=c1\sc2nc(C3COc4ccccc4O3)nn2c1=O (stereo not shown),1.91
25,O=c1c2cc3c(=O)n(-c4ccccn4)c(=O)c3cc2c(=O)n1-c1ccccn1,3.34
26,CCOc1ccc(-c2cc(C(=O)NC(C)C)c3ccccc3n2)cc1,0.795

row,Compound,% Inhibition @ 10 uM [%]
1,CCCn1c(CCCNC(=O)COC)nc2ccccc21,0.121
2,OCC1CCCN(Cc2ccc(Br)o2)C1 (stereo not shown),2.65
3,Nc1ccc(C(c2ccccc2)c2ccc(N)c(Cl)c2)cc1Cl,11.7
4,N#CC1(NC(=O)[C@H](CC2CCCCC2)N[C@H](c2ccco2)C(F)(F)F)CC1,-1.5
5,C=CCSc1nc(O)c2cnn(-c3ccccc3)c2n1,-0.00718
6,Cc1c(C(c2cccc(Br)c2)c2c(C)n(C)n(-c3ccccc3)c2=O)c(=O)n(-c2ccccc2)n1C,0.467
7,CC(Sc1nnnn1-c1ccccc1)C(=O)NC(c1ccccc1)c1ccccc1 (stereo not shown),-4.91
8,CC1NC2(C(=O)N(C/C=C\c3ccccc3)c3ccccc32)C2C(=O)N(Cc3ccccc3)C(=O)C12 (stereo not shown),-1.57
9,NS(=O)(=O)c1ccc(NC(=O)Nc2ccc(Cl)c(Cl)c2)cc1,-0.333
10,COc1ccc(CCNC(=O)CN2C(=O)c3ccccc3S2(=O)=O)cc1OC,8.68
11,O=C(NCCCCc1ccccc1)NC1CCCCC1,1.88
12,Cc1ccccc1N1CCN(C(=O)c2ccccc2C(=O)O)CC1,5.44
13,Cc1sc(NC(=O)Cn2nc(C(F)(F)F)c(Br)c2C)c(C(N)=O)c1C,0.83
14,COc1ccc(CN2CCN(Cc3ccccc3C)CC2)c(OC)c1OC,-3.13
15,CC(C)(C)c1ccc(S(=O)(=O)NCc2ccc(C(=O)NCc3ccccn3)cc2)cc1,-3.41
16,Cc1ccc2c(N)c(C(=O)c3ccccc3)sc2n1,-2
17,C=CCN1CCN(c2ccncc2S(=O)(=O)NC)CC1,0.245
18,CCOc1ccc(-c2nnc(SCC(=O)N3CCOCC3)o2)cc1,1.3
19,Cc1nn(CC(=O)NCCCc2ccccc2)c(=O)c2cc3sccc3n12,1.8
20,CSc1ccc(NC2CCN(Cc3ccccc3)CC2)cc1,-9.49
21,CCN(CC)C1=NC(C(F)(F)F)(C(F)(F)F)N=C(c2ccc(OC)cc2)O1,-3.53
22,CC(NC(=O)c1cccc(F)c1)C(c1cccs1)N1CCN(C)CC1 (stereo not shown),2.34
23,Cn1ncc(Br)c1C(=O)N1CCN(C(=O)c2ccco2)CC1,12.2
24,CC(=O)Nc1cccc2c1C(=O)N(c1ccccc1C)C2=O,-1.96
25,CC1CCCN(c2ncnc3c2cnn3-c2ccc(Cl)cc2)C1 (stereo not shown),-7.06
26,Cc1cc(C)c(OCCOCCN2CCNCC2)c(C)c1,-4.14
